Patent EP4810052A2, “HCRHR2 SELECTIVE POLYPEPTIDES” (Gubra A/S, priority 2023, dated 2026)
At least one structure is not confirmed: it was looked up by name or label, or the drawing left a doubt. Starred links: 1 amine or outer side, 2 acyl side, 3 side chain; linkers in the order of their positions; H or OH if unused. Non-standard residues stand in square brackets, D forms with d. Residues, ends and D or L forms follow the SMILES beside them. Groups on a side chain read outwards from the residue. *: point of attachment. C20 diacid = O=C(O)CCCCCCCCCCCCCCCCCCC(=O)*; Pro(cis-4-F) = O=C(O)[C@@H]1C[C@H](F)CN1; Pro(4S-NH2) = N[C@@H]1CN[C@H](C(=O)O)C1; γGlu = O=C(O)[C@H](CCC(=O)[*:2])N[*:1]; Nle = CCCC[C@H](N)C(=O)O; Ac5c = NC1(C(=O)O)CCCC1; AEEA = NCCOCCOCC(=O)O

Legend:
hCRHR2 = molecular target: T1, hCRHR2 (Homo sapiens, UniProt Q13324); assay: HTRF cAMP assay, determination of hCRHR2 potency (peptide libraries 5 conc., purified peptides 11 conc.); assay type: cell-based; settings: library peptides, matched molecular pairs L vs Nle in position X^38
T1 sequence (Q13324 1-411): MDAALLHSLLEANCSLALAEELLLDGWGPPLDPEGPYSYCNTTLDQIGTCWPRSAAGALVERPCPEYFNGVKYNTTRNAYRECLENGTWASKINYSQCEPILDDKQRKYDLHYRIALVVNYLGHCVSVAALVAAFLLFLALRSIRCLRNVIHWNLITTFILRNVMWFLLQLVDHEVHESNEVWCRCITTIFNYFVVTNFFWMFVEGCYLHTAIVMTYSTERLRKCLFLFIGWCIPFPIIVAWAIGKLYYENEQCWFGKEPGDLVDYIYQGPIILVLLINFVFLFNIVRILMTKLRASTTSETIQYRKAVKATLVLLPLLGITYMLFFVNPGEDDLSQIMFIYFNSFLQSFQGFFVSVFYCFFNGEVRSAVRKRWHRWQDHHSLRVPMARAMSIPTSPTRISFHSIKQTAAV
From the text: HTRF (CisBio) cAMP assay: The assay technology has thoroughly been described in the CisBio HTRF cAMP assay Kit manual (# 62AM4PEC). Briefly, time resolved fluorescence technic was applied to measure cAMP. This technic is based on a competitive immunoassay using cryptate-labelled anti-cAMP antibody and d2-labeled cAMP. In the absence of cellular cAMP, the anti-cAMP cryptate conjugate may get into proximity to cAMP-d2 conjugate and energy (FRET) can be transferred from cryptate to d2.
CHO-K1 cells stably expressing the human corticotropin-releasing hormone receptor 2 (Eurofins/DiscoverX, Cat #95-0048C2 hCRHR2 stable monoclonal cell lines) were used as cells in suspension, brought to life from frozen cell stocks immediately before assay performance.
Concentration-response evaluation of compounds was performed with 5 concentrations of agonist peptides and EC50 values were calculated by nonlinear regression using sigmoid concentration-response with variable slope.
Concentration-response evaluation of compounds was performed with 11 concentrations of agonist peptides and EC50 values were calculated by nonlinear regression using sigmoid concentration-response with variable slope.

hCRHR1 = molecular target: T2, hCRHR1 (Homo sapiens, UniProt P34998); assay: HTRF cAMP assay, determination of hCRHR1 potency (peptide libraries 5 conc., purified peptides 11 conc.); assay type: cell-based; settings: library peptides, matched molecular pairs L vs Nle in position X^38
T2 sequence (P34998 24-415): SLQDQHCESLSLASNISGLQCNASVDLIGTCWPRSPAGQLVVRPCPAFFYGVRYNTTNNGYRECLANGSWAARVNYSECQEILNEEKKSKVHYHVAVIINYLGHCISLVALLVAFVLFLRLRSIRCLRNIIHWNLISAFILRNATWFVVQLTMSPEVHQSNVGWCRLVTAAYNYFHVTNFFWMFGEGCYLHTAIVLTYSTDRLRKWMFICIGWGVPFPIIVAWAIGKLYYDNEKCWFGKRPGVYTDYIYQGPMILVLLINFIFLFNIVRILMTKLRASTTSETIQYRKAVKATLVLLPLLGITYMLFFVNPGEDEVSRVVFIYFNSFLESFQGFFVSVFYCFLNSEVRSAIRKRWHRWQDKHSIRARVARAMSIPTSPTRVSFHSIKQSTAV
From the text: HTRF (CisBio) cAMP assay: The assay technology has thoroughly been described in the CisBio HTRF cAMP assay Kit manual (# 62AM4PEC). Briefly, time resolved fluorescence technic was applied to measure cAMP. This technic is based on a competitive immunoassay using cryptate-labelled anti-cAMP antibody and d2-labeled cAMP. In the absence of cellular cAMP, the anti-cAMP cryptate conjugate may get into proximity to cAMP-d2 conjugate and energy (FRET) can be transferred from cryptate to d2. CHO-K1 cells stably expressing the human corticotropin-releasing hormone receptor 1 (Eurofins/DiscoverX Cat #95-0047C2 hCRHR1 stable monoclonal cell lines) were used as cells in suspension, brought to life from frozen cell stocks immediately before assay performance. […] Concentration-response evaluation of compounds was performed with 5 concentrations of agonist peptides and EC50 values were calculated by nonlinear regression using sigmoid concentration-response with variable slope. Concentration-response evaluation of compounds was performed with 11 concentrations of agonist peptides and EC50 values were calculated by nonlinear regression using sigmoid concentration-response with variable slope.

Row | Compound | Potency hCRHR2 pEC50 (hCRHR2) | Potency hCRHR1 pEC50 (hCRHR1)
1 | CC[C@H](C)[C@H](N)C(=O)N[C@H](C(=O)N[C@@H](CC(C)C)C(=O)N[C@@H](CO)C(=O)N[C@@H](CC(C)C)C(=O)N[C@@H](CC(=O)O)C(=O)NC1(C(=O)N2CCC[C@H]2C(=O)N[C@H](C(=O)NCC(=O)N[C@@H](CC(C)C)C(=O)N[C@@H](CC(C)C)C(=O)N[C@@H](CCC(N)=O)C(=O)N[C@H](C(=O)N[C@@H](CC(C)C)C(=O)N[C@@H](CC(C)C)C(=O)N[C@@H](CCC(=O)O)C(=O)N[C@@H](CCC(N)=O)C(=O)N[C@@H](C)C(=O)N[C@@H](CCCNC(=N)N)C(=O)N[C@@H](C)C(=O)N[C@@H](CCCNC(=N)N)C(=O)N[C@H](C(=O)N[C@@H](C)C(=O)N[C@@H](CCCNC(=N)N)C(=O)N[C@@H](CCC(=O)O)C(=O)N[C@@H](CCC(N)=O)C(=O)N[C@@H](C)C(=O)N[C@@H](CCCCNC(=O)COCCOCCNC(=O)COCCOCCNC(=O)CC[C@H](NC(=O)CC[C@H](NC(=O)CCCCCCCCCCCCCCCCCCC(=O)O)C(=O)O)C(=O)O)C(=O)N[C@H](C(=O)N[C@@H](CC(N)=O)C(=O)N[C@@H](C)C(=O)N[C@@H](CCC(=O)O)C(=O)N[C@H](C(=O)N[C@@H](CC(C)C)C(=O)N[C@@H](C)C(=O)N[C@@H](CCC(=O)O)C(=O)N[C@H](C(N)=O)C(C)C)[C@@H](C)CC)[C@@H](C)O)C(C)C)[C@@H](C)CC)[C@@H](C)CC)CCCC1)C(C)C [compound 108] (H-IVLSLD[Ac5c]PIGLLQILLEQARARVAREQAK([AEEA-AEEA-γGlu-γGlu-C20 diacid])TNAEILAEV-NH2; N-terminus assumed) | 9.3 | 8.5
2 | CCCC[C@H](NC(=O)[C@@H](NC(=O)[C@H](CCC(=O)O)NC(=O)[C@H](C)NC(=O)[C@H](CC(N)=O)NC(=O)[C@@H](NC(=O)[C@H](CCCCNC(=O)COCCOCCNC(=O)COCCOCCNC(=O)CC[C@H](NC(=O)CC[C@H](NC(=O)CCCCCCCCCCCCCCCCCCC(=O)O)C(=O)O)C(=O)O)NC(=O)[C@H](C)NC(=O)[C@H](CCC(N)=O)NC(=O)[C@H](CCC(=O)O)NC(=O)[C@H](CCCNC(=N)N)NC(=O)[C@H](C)NC(=O)[C@H](CCC(N)=O)NC(=O)[C@H](CCCNC(=N)N)NC(=O)[C@H](C)NC(=O)[C@H](CCCNC(=N)N)NC(=O)[C@H](C)NC(=O)[C@H](CCC(N)=O)NC(=O)[C@@H](NC(=O)[C@H](CC(C)C)NC(=O)[C@H](CC(C)C)NC(=O)[C@@H](NC(=O)[C@H](CCC(N)=O)NC(=O)[C@H](CC(C)C)NC(=O)[C@H](CC(C)C)NC(=O)CNC(=O)[C@@H](NC(=O)[C@@H]1CCCN1C(=O)[C@@H](NC(=O)[C@H](CC(=O)O)NC(=O)[C@H](CC(C)C)NC(=O)[C@H](CO)NC(=O)[C@H](CC(C)C)NC(=O)[C@@H](NC(=O)[C@@H](N)[C@@H](C)CC)C(C)C)C(C)C)[C@@H](C)CC)[C@@H](C)CC)[C@@H](C)O)[C@@H](C)O)[C@@H](C)CC)C(=O)N[C@@H](C)C(=O)N[C@@H](CCC(=O)O)C(=O)N[C@H](C(N)=O)C(C)C [compound 93] (H-IVLSLDVPIGLLQILLTQARARQAREQAK([AEEA-AEEA-γGlu-γGlu-C20 diacid])TNAEI[Nle]AEV-NH2; N-terminus assumed) | 9.4 | 3.8
3 | CC[C@H](C)[C@H](N)C(=O)N[C@H](C(=O)N[C@@H](CC(C)C)C(=O)N[C@@H](CO)C(=O)N[C@@H](CC(C)C)C(=O)N[C@@H](CC(=O)O)C(=O)N[C@H](C(=O)N1C[C@@H](F)C[C@H]1C(=O)N[C@H](C(=O)NCC(=O)N[C@@H](CC(C)C)C(=O)N[C@@H](CC(C)C)C(=O)N[C@@H](CCC(N)=O)C(=O)N[C@H](C(=O)N[C@@H](CC(C)C)C(=O)N[C@@H](CC(C)C)C(=O)N[C@@H](CCC(=O)O)C(=O)N[C@@H](CCC(N)=O)C(=O)N[C@@H](C)C(=O)N[C@@H](CCCNC(=N)N)C(=O)N[C@@H](C)C(=O)N[C@@H](CCCNC(=N)N)C(=O)N[C@@H](C)C(=O)N[C@@H](C)C(=O)N[C@@H](CCCNC(=N)N)C(=O)N[C@@H](CCC(=O)O)C(=O)N[C@@H](CCC(N)=O)C(=O)N[C@@H](C)C(=O)N[C@@H](CCCCNC(=O)COCCOCCNC(=O)COCCOCCNC(=O)CC[C@H](NC(=O)CC[C@H](NC(=O)CCCCCCCCCCCCCCCCCCC(=O)O)C(=O)O)C(=O)O)C(=O)N[C@H](C(=O)N[C@@H](CC(N)=O)C(=O)N[C@@H](C)C(=O)N[C@@H](CCC(=O)O)C(=O)N[C@H](C(=O)N[C@@H](CC(C)C)C(=O)N[C@@H](C)C(=O)N[C@@H](CCC(=O)O)C(=O)N[C@H](C(N)=O)C(C)C)[C@@H](C)CC)[C@@H](C)O)[C@@H](C)CC)[C@@H](C)CC)C(C)C)C(C)C [compound 102] (H-IVLSLDV[Pro(cis-4-F)]IGLLQILLEQARARAAREQAK([AEEA-AEEA-γGlu-γGlu-C20 diacid])TNAEILAEV-NH2; N-terminus assumed) | 9.1 | 3.6
4 | CCCC[C@H](NC(=O)[C@@H](NC(=O)[C@H](CCC(=O)O)NC(=O)[C@H](C)NC(=O)[C@H](CC(N)=O)NC(=O)[C@@H](NC(=O)[C@H](CCCCNC(=O)COCCOCCNC(=O)COCCOCCNC(=O)CC[C@H](NC(=O)CC[C@H](NC(=O)CCCCCCCCCCCCCCCCCCC(=O)O)C(=O)O)C(=O)O)NC(=O)[C@H](C)NC(=O)[C@H](CCC(N)=O)NC(=O)[C@H](CCC(=O)O)NC(=O)[C@H](CCCNC(=N)N)NC(=O)[C@H](C)NC(=O)[C@@H](NC(=O)[C@H](CCCNC(=N)N)NC(=O)[C@H](C)NC(=O)[C@H](CCCNC(=N)N)NC(=O)[C@H](C)NC(=O)[C@H](CCC(N)=O)NC(=O)[C@H](CCC(=O)O)NC(=O)[C@H](CC(C)C)NC(=O)[C@H](CC(C)C)NC(=O)[C@@H](NC(=O)[C@H](CCC(N)=O)NC(=O)[C@H](CC(C)C)NC(=O)[C@H](CC(C)C)NC(=O)CNC(=O)[C@@H](NC(=O)[C@@H]1CCCN1C(=O)C1(NC(=O)[C@H](CC(=O)O)NC(=O)[C@H](CC(C)C)NC(=O)[C@H](CO)NC(=O)[C@H](CC(C)C)NC(=O)[C@@H](NC(=O)[C@@H](N)[C@@H](C)CC)C(C)C)CCCC1)[C@@H](C)CC)[C@@H](C)CC)C(C)C)[C@@H](C)O)[C@@H](C)CC)C(=O)N[C@@H](C)C(=O)N[C@@H](CCC(=O)O)C(=O)N[C@H](C(N)=O)C(C)C [compound 109] (H-IVLSLD[Ac5c]PIGLLQILLEQARARVAREQAK([AEEA-AEEA-γGlu-γGlu-C20 diacid])TNAEI[Nle]AEV-NH2; N-terminus assumed) | 9.4 | 8.6
5 | CCCC[C@H](NC(=O)[C@@H](NC(=O)[C@H](CCC(=O)O)NC(=O)[C@H](C)NC(=O)[C@H](CC(N)=O)NC(=O)[C@@H](NC(=O)[C@H](CCCCNC(=O)COCCOCCNC(=O)COCCOCCNC(=O)CC[C@H](NC(=O)CC[C@H](NC(=O)CCCCCCCCCCCCCCCCCCC(=O)O)C(=O)O)C(=O)O)NC(=O)[C@H](C)NC(=O)[C@H](CCC(N)=O)NC(=O)[C@H](CCC(=O)O)NC(=O)[C@H](CCCNC(=N)N)NC(=O)[C@H](C)NC(=O)[C@@H](NC(=O)[C@H](CCCNC(=N)N)NC(=O)[C@H](C)NC(=O)[C@H](CCCNC(=N)N)NC(=O)[C@H](C)NC(=O)[C@H](CCC(N)=O)NC(=O)[C@H](CCC(=O)O)NC(=O)[C@H](CC(C)C)NC(=O)[C@H](CC(C)C)NC(=O)[C@@H](NC(=O)[C@H](CCC(N)=O)NC(=O)[C@H](CC(C)C)NC(=O)[C@H](CC(C)C)NC(=O)CNC(=O)[C@@H](NC(=O)[C@@H]1C[C@H](N)CN1C(=O)[C@@H](NC(=O)[C@H](CC(=O)O)NC(=O)[C@H](CC(C)C)NC(=O)[C@H](CO)NC(=O)[C@H](CC(C)C)NC(=O)[C@@H](NC(=O)[C@@H](N)[C@@H](C)CC)C(C)C)C(C)C)[C@@H](C)CC)[C@@H](C)CC)[C@@H](C)CC)[C@@H](C)O)[C@@H](C)CC)C(=O)N[C@@H](C)C(=O)N[C@@H](CCC(=O)O)C(=O)N[C@H](C(N)=O)C(C)C [compound 105] (H-IVLSLDV[Pro(4S-NH2)]IGLLQILLEQARARIAREQAK([AEEA-AEEA-γGlu-γGlu-C20 diacid])TNAEI[Nle]AEV-NH2; N-terminus assumed) | 9.1 | 8.3
